Data reported in publication PMC10711660, “An extended Tudor domain within Vreteno interconnects Gtsf1L and Ago3 for piRNA biogenesis in Bombyx mori” (The EMBO Journal, 2023).
Positions count from the first letter of the chain named. Names and notes keep the numbering of the source. No constants are given. Whether binding was seen depends on the method and setting. In cells and extracts the contact can be indirect. Some entries that bind do so weakly or less than the wild type. Sequences can lack the tags named with a protein. Values belong to the binder of their own block, whether it stands above or below them.

Key:
[1] = molecular target: T1, full length (FL) BmGtsf1L‐eGFP (Bombyx mori); experiment: co-IP; GFP-IP on lysates of BmN4 cells co-transfected with BmGtsf1L-eGFP and HA-BmVreteno full length, truncation variants or point mutants; HA-LacZ as control; Western blot
T1 sequence: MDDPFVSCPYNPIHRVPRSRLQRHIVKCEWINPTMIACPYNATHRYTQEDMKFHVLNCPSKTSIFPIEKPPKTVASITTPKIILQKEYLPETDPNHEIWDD

[2] = molecular target: T2, HA‐BmGtsf1L‐eGFP (Bombyx mori); experiment: co-IP; GFP-Trap magnetic agarose or control beads, lysate of BmN4 cells stably expressing HA-BmGtsf1L-eGFP; also after dsRNA knock-down of luciferase, BmAgo3 or BmVreteno; IP-150 buffer, overnight 4°C; Western blot
T2 sequence: T1 sequence

B1: HA‐BmVreteno (L)‐FL (protein)
chain: MSNHSRPQRRREWDPMRDDFNEHTYDVQYADDNAGEQVQLDHTKLYIINIPRGLSEDGIRAAFSKHGKVLSARLSKNPNKRFAIVQFETASEAKLAMMKMNGSEPLNLKISIAHKTIRKTQHDNKDRNYSTSRNGHCSRDEASSISSKGWNMRNLDDVMNNDEIDEIDDMIHEDHDDNLDLELDMLTLKQLKIKEEQLMCKRRLLLRHAEKRQVAPHSSAGRSVLPDGRIVVRNNANETDSAEVEPSFAGAGSESLKTPGLERNASRQCVKCGAPADWYCSRCAITPYCSQTCQTRDWTERHKSVCHYLAPLKTAGGFEAEATSSKSVSNSTPMRSSHSPPTKQQRGEADETDNKAKNIQEPRQNYHRPSNSGPNKNIPGKNQDPRRPATSREAIEEETEERGARNPKPAEATKDKHHPMNPVTFQRRQLKSNPVVDAQPAPREQQQPAATRAPEASPTEQRESTRRTLVPDRCLIDSLSEGDVVLVSVELKASECCTKQGGYVCLSMHEKYESDYQKLCEDYVLDCEADSDEYKIITGDTFSYLSPEDGGWYRARALNTTMAALLDGSKVVYLRMNDKVKKLPAKYSGIPEFCCVLNADVEVGLNLKCSLLSKTPNGFKVTLENVETEANVGEGEITRWIPEVDYPPPVKNVPVQRSVEIPEVPRPEIKNKSRVILVDATDVQRVFVRPADTRSQKAFDNILQDVLLYGTTAEPLKEPPSKGQTVVSKYTDNLHYRALCKRTSVNKNKYLLEYIEYGNIEITQLNRLYPCPEHLSVTSLASLTSHVQLDTTVGELTPRALEYIETIKEEEMILTLSSGGDTAQSGAALVNLTLVKNNDNVNKRIEELCTPEWKKLELKGVDVIETERLMYGTALDYIELPAAPFDLQVLDEVGLDSGNISGCPTNSDYVRYVMTKLPARMREYCESEFGRQPYLPAAEELCIAQLPPSSEWHRAVVLEQILGPGGGTARVLFVDHGNVAEVPVSSLRKMLAEFVTDLPAVACQIVIEDFPKQATAEMLAKARRFMSGPDKARAAQLPVRGCDKQDVGIYAIRVPELLEAMTE
binding [1]: binds

B3: HA‐BmVreteno‐FL I762W (protein)
chain: B1 chain with I762W
binding [1]: binds

Continued, values first:

binding [1]: binds
B2: HA‐BmVreteno‐FL S744D (protein)
chain: B1 chain with S744D

binding [2]: binds
B4: endogenous Siwi (protein, UniProt A8D8P8 1-899)
chain: MSEPRGRGRARGRAGRGGDGGGPAPRRPGEQAGPSQQSMPPGPRPQPPSGWGPQSSVPPVRAGVPTPTAQAGRASHRVTPTTHEHPGDIDVQQRMQKLELGPHSSGGGDASSVVGRGSRRGGGRVLPETISILRTRPEAVTSKKGTSGTPLDLLANYFTVETTPKWGLYQYHVDISPEEDSTGVRKALMRVHSKTLGGYLFDGTVLYTVNRLHPDPMELYSDRKTDNERMRILIKLTCEVSPGDYHYIQIFNIIIRKCFNLLKLQLMGRDYFDPEAKIDIPEFKLQIWPGYKTTINQYEDRLLLVTEIAHKVLRMDTVLQMLSEYAATKGNNYKKIFLEDVVGKIVMTDYNKRTYRVDDVAWNVSPKSTFKMRDENITYIEYYYKKYNLRIQDPGQPLLISRSKPREIRAGLPELIYLVPELCRQTGLSDEMRANFKLMRSLDVHTKIGPDKRIEKLNNFNRRFTSTPEVVEELATWSLKLSKELVKIKGRQLPPENIIQANNVKYPAGDTTEGWTRDMRSKHLLAIAQLNSWVVITPERQRRDTESFIDLIIKTGGGVGFRMRSPDLVVIRHDGPIEYANMCEEVIARKNPALILCVLARNYADRYEAIKKKCTVDRAVPTQVVCARNMSSKSAMSIATKVAIQINCKLGGSPWTVDIPLPSLMVVGYDVCHDTRSKEKSFGAFVATLDKQMTQYYSIVNAHTSGEELSSHMGFNIASAVKKFREKNGTYPARIFIYRDGVGDGQIPYVHSHEVAEIKKKLAEIYAGVEIKLAFIIVSKRINTRIFVQRGRSGENPRPGTVIDDVVTLPERYDFYLVSQNVREGTIAPTSYNVIEDTTGLNPDRIQRLTYKLTHLYFNCSSQVRVPSVCQYAHKLAFLAANSLHNQPHYSLNETLYFL
